# Reference: the supplement of paper PMC11417369
# The list shows a part of the results.
# Tested on: PF3D7_0420300 AP2 domain 1 (GST-tagged)
# Assay: gcPBM binding intensity (ln(normalized median fluorescence intensity)); higher = stronger DNA binding
# Procedure, shortened: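 DNA-binding domains from P. falciparum, fused to GST and produced in E. coli, were put on an Agilent 4 × 180k double-stranded probe array for 1 h in 1× PBS holding 1% milk, 0.2 mg/ml BSA, 0.5% salmon testes DNA and 0.03% Triton X-100. Probes were primer-extended, 36 bp long and drawn from intergenic genomic regions, with negative controls included. After Alexa488 anti-GST antibody detection and a 488 nm scan, binding intensity was set as the highest Masliner-normalised natural-log median intensity across replicate spots of either probe orientation.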
row,Sequence,gcPBM binding intensity (ln)
1,ACAAGACAACAAGGAAGTACTCATAAATATATTTGG [XGTACX_site1423],9.4
2,ATGTAGAATTGTAAATGTACATGAAACACATATTCA [XGTACX_site3436],9.28
3,CTCACATATATATATAGTACAATTTTTTTTTTTTTT [XGTACX_site5999],9.15
4,AGTAAATAATTATATACATGCATTTACTAATATTTA [TGCATGCA_site952],9.17
5,ATATGACGTAGTGGTGTACACACATGGTACCTTTAT [CACACA_site8436],9.66
6,CATATACATACACATACACACATACACCCATACACA [CACACA_site8514],9.77
7,TGTAAAAAATTTAACACACACATATATAAATATGTA [CACACA_site7261],9.47
8,AATATATATTTATGTACACACTCCAATACAGATACA [CACACA_site5481],9.57
9,ATACTATTATATATATGTACATATATATGATGCTCT [XGTACX_site1771],9.39
10,AAGGAGCCTATGAACACACACATGTACATATATTAA [CACACA_site4084],9.59
11,TTCGTTCTTTTATGCACACTCAACATATAAATTAAA [CACACA_site1209],9.54
12,TTATAATATATATGTAGTACTGTTTTTTTCTATTTT [XGTACX_site7749],9.52
13,TATTATTTTAAAAATGCATGTTCATATGAAATAATA [TGCATGCA_site969],9.04
14,TGTACAAATATGTACACACACACATATATATATATA [CACACA_site584],9.85
15,TATTCACATACAGAAACACACACATATATATAAATT [CACACA_site9232],9.78
16,TTTGTGTGTGCGTGTGCATGTTGTTTTTTTCTATAA [TGCATGCA_site17],10.1
17,AATATAATAACTTATTGTACGAAATTATATCACCTT [XGTACX_site7883],9.32
18,TAATTAAGCATAAATATAATTTTATATTTTATTTCC [XGTACX_negctrl_site321],8.89
19,TGCAGTCTGGAGAAAAGTACATAGTATCTGGTAGCT [XGTACX_site2547],9.23
20,TAACATAGCAATGTTTCACACACAAGAAAAAATACA [CACACA_site8747],9.73
21,ATATATGTATATATTTGTACATATAATATTTTTTAA [XGTACX_site6345],9.04
22,ATTTGTAATTTATTCAAACACACAATTTGGACCTTT [CACACA_site1062],9.21
23,TATATTATAATTTGAAGTACATTTTAAATTAACTAA [XGTACX_site1013],8.88

row,Sequence,gcPBM binding intensity (ln)
1,ATATAATAGTATATATGTACATATATTTAAATACTA [XGTACX_site1135],9.27
2,AAAAAATAAAAAAAAACACACACATACAAGCATATA [CACACA_site8451],10
3,AGAGAGAGAAATACAAGTACATGTGAAACCAATCTA [XGTACX_site2767],9.31
4,AAAAAAAAAAAAATTGCACACAAAAAAAAAAAAAAA [CACACA_site8644],9.24
5,TTCAACATAATATGCACACAAAAATTATGGAACGAA [CACACA_site2111],9.67
6,AAAAAAAACAAATACACACGCACACCGAAAAAAAAA [CACACA_site803],10
7,CTTTATCTTCTCACGAAGATTGAATAAGGTATTCTT [XGTACX_negctrl_site307],9.03
8,CAGACAATAAAGAAGTGTACACATATATCAATAAAA [XGTACX_site4515],9.53
9,AAAAAAAAATACCTACGTACATATATATATTATATA [XGTACX_site3983],9.24
10,AAAAAAAAAAAACACACACACACACCCACAAAATAT [CACACA_site1447],10.2
11,TTAATGCACTTTATTACACACACTAGTTCATTACCT [CACACA_site2294],9.85
12,AAAAAAAAATAAAATAAAATAAAATAAAATAATATA [CACACA_negctrl_site1798],9.39
13,ACATATGTATAATAATGTACGCATTAAATATAATTA [XGTACX_site7851],9.33
14,AAACAAATGTACAAAGTGCATATTTTTTTCAAAAGG,9.19
15,ATAATATATATTAATACACACACACCGATATATATA [CACACA_site9261],10.1
16,GACCAATACTTTAAAAGTACAAACCTTATTTTATTT [XGTACX_site2718],9.38
17,TATTTTATAAATACAAGTAAAATTAAATATATAATA [XGTACX_negctrl_site221],8.93
18,AGGAGGATATTACACAGTACCCAGGAAATCTACGGA [XGTACX_site4878],9.28
19,TTGTACTACAATCCTTTATTTATTTAAACCTGTATG [CACACA_negctrl_site428],9.14
20,TATATAAATAGACACACACACACATATAAATAAATA [CACACA_site7855],10.2
21,TTTCAATGCATAAAAGTGCGCAATAATTTAAAGATC,9.23
22,AAATAAATATATATATGTACATACAAATACACGGTA [XGTACX_site8510],9.65
23,AAGAAAAATGTCATATGATATCATATATTTTATAAT [TGCATGCA_negctrl_site296],9.04

row,Sequence,gcPBM binding intensity (ln)
1,ATTTTCCCTTGTTTTACACACGTGCTGATATGAGAT [CACACA_site2164],9.73
2,AAAAAAAAAAAAAAATGTACATTATACACATTATAT [XGTACX_site6824],9.28
3,TAGCCAAAATATAATTTACACACTTATTAAATAATT [CACACA_site7963],9.22
4,AATTATGCATTTGTCACACATATATATTACACTTGC [CACACA_site5324],9.47
5,ATATAATATTGAGTTTGTACATATATATATGAAGAT [XGTACX_site4444],9.34
6,CGATTTTTTAAGTTTGTGCACTTAAAAACTATAACA,8.88
7,CCATTTGATAATAATGCACACCACATATATTTATAT [CACACA_site9002],9.46
8,AAAAGGAATTATAGGAAATAAATATATACAAATATA [TGCATGCA_negctrl_site528],9.18
9,TATATGTCAATATCTACACACATATAGGTAATTATT [CACACA_site7475],9.55
10,TATACTATACAACACATACACACAAAAAAAAAAAAA [CACACA_site537],9.74
11,TATTTCAAAATAAAATAAAATATATATATATGTATA [XGTACX_negctrl_site416],9.01
12,TAAATCATGGGATAAGCATGCGCGCACATGTTTGTT [TGCATGCA_site768],9.19
13,TTTATTTATTAAGAATGTACATGTATTTGTTAAATA [XGTACX_site4465],8.93
14,GTATTATCTGCTTTTTGTACACATATATTTAAAAAA [XGTACX_site7603],9.31
15,TTCTGTGTGTATTGGCGTACAATTATTTTGCCTACA [XGTACX_site205],9.56
16,ACATTCACAAAATTTTGTACACATATATATATATAT [XGTACX_site3518],9.46
17,AATGTGATAATATACACACACGCATATATATATATA [CACACA_site323],9.72
18,AAAACACTTATGGATTGTACAATAAAAATTATATTA [XGTACX_site7042],9.26
19,CTGTGTAATTTAAATTGTACGTTTGAAAAAAATAAA [XGTACX_site5667],8.96
20,TTTTAAAGAAAAAAATGTACAAAATTTTTATTTTAA [XGTACX_site1496],8.59
21,ACCCACGTAAATTAAGCATGCCTTCCGTTATATTTA [TGCATGCA_site365],9.54
22,TTTTACTAAATATATACACACATTATGCATATATAT [CACACA_site3287],9.52
23,TATATGTAATATTATACATGCATACATAATATATAT [TGCATGCA_site558],9.22

row,Sequence,gcPBM binding intensity (ln)
1,TATGTGAATATAATCACACACAATACGGAAAGAGAC [CACACA_site7311],10.2
2,TTTTTTTTTTATAAGGCACACATGAATATTTATACA [CACACA_site1316],9.17
3,TATTATATATATATATGTACATATTGTATGTTATAT [XGTACX_site5303],9.3
4,TTTTTTTCAATATTTGCACACGATTAAAATATTTAA [CACACA_site5266],9.22
5,TATGTGAATATTGAGGTGCGGTTGTTAAAATTTATA [GTGCAC_site9915],9.31
6,TTAAATATTTTTTATACACACATTTCTTATTTAACT [CACACA_site229],9.52
7,TAATTATTATTAATAGTACACACTATGGCATTTCAA [CACACA_site2488],9.19
8,AGTAGTCTGGAGAAGAGTACACAGTATCTGGTAGCT [XGTACX_site2042],9.11
9,ACATTAACATTGTTGGTGCAAAATTAATATGTTTTT [GTGCAC_site9673],9.24
10,ATAACTATAATAATCATACACACCAAAGAGAATATT [CACACA_site6970],9.85
11,ATTTTTCATTCTGGACATGTTACCATTATATATATG [CACACA_negctrl_site61],9.55
12,ATTATTACTTTTTGAGTGCACATACACACAGACATA,9.48
13,ATTAAAAAAATATACGCACACAAAATGTAATAACAA [CACACA_site2439],9.71
14,TAATTTGTTATGTATTGTACAAATAATATATGATAT [XGTACX_site1985],9.13
15,TTTTGTTTAAAAAAAAAAAACAAAAAAAAGCAATTA [CACACA_negctrl_site314],9
16,TTACATAATTTATGTACACACGCAAATACTTATAAT [CACACA_site4331],9.43
17,CCTAAAGTGTAAAATTCACACACATATATATATATA [CACACA_site8385],9.45
18,TTTATTTATAGGTATACACACTTTAATTAAAAGTTG [CACACA_site7232],9.26
19,TTTATTTTTGAAGTTGCACACACAAAAATAAAAAGT [CACACA_site8030],9.4
20,CAAAAATAATTTAGGTGTACAAATTTGACAAAAAAA [XGTACX_site188],9.15
